The campaign covered roughly 270,000 compounds. About 620 (0.23%) were called active. The inconclusive results got no clear call from the source; some entries with a clear call stand among them for comparison. The call rests on the fitted dose curve; in most records, active means well fitted inhibition curve with a large enough effect in the polarisation, with a control signal flat (not every such curve was filed as active); inconclusive means small, poorly fitted or top-dose-only effect, or effect the other way, or a change in a side signal; inactive means no such curve, though single readings can be large or run the other way; the % refers to the polarisation. Where the call is inconclusive, the potency comes from a doubtful curve fit. “Side channel” marks fits to a control or component signal instead of the main read-out.
target: Menin (Homo sapiens) (UniProt O00255); assay: qHTS Assay for Inhibitors Targeting the Menin-MLL Interaction in MLL Related Leukemias: Competition With Texas Red Labeled MLL-derived Mutant Peptide; details: fluorescence polarization; series mostly up to 61.6 µM
Potency means the concentration at half of the fitted maximal effect; tags describe the fitted curve by direction and shape or compound fluorescence and quenching.

Chain of UniProt O00255 (O00255 whole entry, looked up): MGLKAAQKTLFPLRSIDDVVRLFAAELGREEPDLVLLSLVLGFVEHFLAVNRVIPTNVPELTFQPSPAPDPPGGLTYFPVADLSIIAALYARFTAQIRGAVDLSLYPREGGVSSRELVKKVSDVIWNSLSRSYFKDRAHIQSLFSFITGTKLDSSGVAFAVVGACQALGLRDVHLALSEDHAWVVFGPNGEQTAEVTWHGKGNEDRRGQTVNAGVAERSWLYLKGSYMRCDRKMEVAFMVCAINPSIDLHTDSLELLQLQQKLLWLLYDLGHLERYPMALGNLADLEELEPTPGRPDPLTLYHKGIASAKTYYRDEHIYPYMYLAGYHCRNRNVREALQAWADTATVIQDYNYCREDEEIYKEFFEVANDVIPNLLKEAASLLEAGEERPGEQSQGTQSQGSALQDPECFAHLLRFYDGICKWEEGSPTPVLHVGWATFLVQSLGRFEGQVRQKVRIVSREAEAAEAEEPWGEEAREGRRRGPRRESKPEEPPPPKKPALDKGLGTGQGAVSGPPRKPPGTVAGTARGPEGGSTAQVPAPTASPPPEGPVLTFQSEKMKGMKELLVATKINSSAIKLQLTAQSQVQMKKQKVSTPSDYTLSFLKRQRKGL

Potency, inconclusive:
CCCCn1nc2cc(C(=O)NCc3ccc(C(F)(F)F)cc3C(F)(F)F)ccc2c1OCC 6.31 µM [inhibitor, single point], CCOc1cc(/C=N/NS(=O)(=O)c2ccccc2)ccc1OS(=O)(=O)c1ccc(C)cc1 8.91 µM [quencher, side channel, full curve], CN1/C(=C\C(=O)COC(=O)c2ccc(O)c(O)c2)C(C)(C)c2ccccc21 17.8 µM [fluorescent, side channel, partial curve], COc1cc(C2Nc3cccc4cccc(c34)N2)cc(OC)c1OC(C)=O 14.1 µM [quencher, side channel, partial curve], COc1ccc2cc3cc(C(=O)NCCc4ccc(OC)c(OC)c4)oc3nc2c1 39.8 µM [fluorescent, side channel, single point], O=C(/C=C(\O)c1ccccc1)C(=O)NNC(=O)c1ccccc1 39.8 µM [inhibitor, single point], N#CC1=C(N)N(c2ccc(F)cc2)C2=C(C1c1ccc(O)cc1)S(=O)(=O)CC2 (configuration not stated) 39.8 µM [fluorescent, side channel, single point], CC(C)N1CCc2c(sc(NC(=O)c3nc4ccccc4s3)c2C(N)=O)C1 39.8 µM [quencher, side channel, single point], O=C(Nc1nccs1)C1CCN(S(=O)(=O)c2ccc(Cl)c(C(F)(F)F)c2)CC1 1.12 µM [quencher, side channel, full curve], CCc1nnc(NC(=O)c2ccc(-c3cccc(C(F)(F)F)c3)o2)s1 6.31 µM [inhibitor, partial curve], COc1ccc(/C=C2\SC(=S)N(CCC(=O)N(CCO)c3ccccc3)C2=O)cc1OC 2.24 µM [fluorescent, side channel, full curve, poor fit], C#CCOCCOCCOCCNc1nc(N2CCN(C(=O)[C@H]([C@@H](C)CC)n3cc([C@@H](N)CO)nn3)CC2)nc(N2CCN(C(=O)[C@H](Cc3ccc(O)cc3)n3cc([C@@H](N)C(C)CC)nn3)CC2)n1 (some centres not stated) 10 µM [fluorescent, side channel, partial curve], O=C1C(C2=C(O)c3ccccc3C2=O)=Nc2ccccc21 14.1 µM [quencher, side channel, partial curve], O=[N+]([O-])c1cc(S(=O)(=O)C(F)(F)F)ccc1Sc1nc2ccccc2s1 14.1 µM [quencher, side channel, partial curve], O=S(=O)(c1ccc2nc(COc3ccc(Cl)cc3Cl)[nH]c2c1)N1CCOCC1 25.1 µM [quencher, side channel, single point], Clc1nc(Nc2ccc(N3CCOCC3)cc2)c2ccccc2n1 25.1 µM [quencher, side channel, partial curve], CCc1nnc(NS(=O)(=O)c2ccc(NC(=O)c3ccc(S(=O)(=O)N(CC)CC)cc3)cc2)s1 10 µM [quencher, side channel, partial curve], O=c1cc(CN2CCN(c3ccccc3F)CC2)c2cc(O)c(-c3ccccc3)cc2o1 35.5 µM [inhibitor, single point], Cc1ccc(Cl)cc1N1CCN(C(=O)Cc2c(C(=O)O)[nH]c3ccc(Cl)cc23)CC1 35.5 µM [quencher, side channel, single point], COc1ccc2nc(NC(=S)N(C)C)sc2c1 35.5 µM [quencher, single point], COc1cnc(-c2ccccc2)nc1Oc1ccc(C(C)(C)C)cc1 17.8 µM [fluorescent, side channel, single point], Cc1nc(Nc2ccc3c(c2)OCO3)c2oc3ccccc3c2n1 14.1 µM [quencher, side channel, partial curve], O=C(CSCc1ccc(Cl)cc1Cl)Nc1ccccc1C(=O)Nc1ccc(C(=O)O)cc1 10 µM [quencher, side channel, partial curve], O=C(Nc1cc(C(F)(F)F)ccc1Cl)c1ccc(NC(=O)C(F)(F)F)cc1 39.8 µM [inhibitor, single point], COc1cccc(CNC(=O)CCCN2C(=O)C(c3ccccc3)Oc3cccnc32)c1OC (configuration not stated) 11.2 µM [fluorescent, side channel, partial curve], CCOc1ccc(S(=O)(=O)NC(Cc2cnc[nH]2)C(=O)O)cc1 (configuration not stated) 31.6 µM [inhibitor, single point], Cn1c(-c2ccc(F)cc2)cnc1NCc1ccc(F)cc1 28.2 µM [inhibitor, single point], Cc1nc2ccc(Nc3ccncc3)cc2s1 39.8 µM [inhibitor, single point], O=C(Nc1ccc(S(=O)(=O)NCC2CCCO2)cc1)c1ccc(F)cc1 (configuration not stated) 31.6 µM [inhibitor, single point], O=c1c2c(-c3ccc([N+](=O)[O-])cc3)csc2nc2n1CCCCC2 35.5 µM [quencher, side channel, single point]

Potency, inactive:
CC(CNc1ccccc1O)C(=O)O (configuration not stated), CCC1=NN2C(=N)/C(=C\c3ccc(OCc4cc(=O)n5nc(CC)sc5n4)c(OC)c3)C(=O)N=C2S1, C=CCOC(=O)C1(C(NC(=O)OC)c2ccccc2)C(=O)Cc2ccccc21 (configuration not stated), NCCc1cnc(-c2cccc(C(F)(F)F)c2)[nH]1, Cc1c(CC(=O)O)c(=O)oc2c(C)c3occ(-c4ccccc4)c3cc12, NC(=O)C1CCN(C(=O)CCSCc2ccc(Cl)c(Cl)c2)CC1, CCOC(=O)COc1ccc(/C=C2/C(=O)NN(c3ccc(F)cc3)C2=O)cc1OC
